# Experiments:
# EOL-1 = assay: Flow cytometry binding to endogenous cell line EOL-1; type: cell-based, human; parameters: key: (−): No binding; (+): Weak binding; (++): Moderate binding; (+++): Strong binding; details: primary antibody 1 ug/ml
# Experimental: (§1) Staining for flow cytometry was performed in 1× cold PBS with 0.5% BSA. Primary antibodies (1 ug/ml) were incubated with live cells on ice for 30 minutes, after a brief wash, cells were incubated with Alexa Fluro® 488-conjugated anti-human IgG secondary antibody @1:1000 (709-546-149, Jackson ImmunoResearch). Acquisition of the data was performed on a MACSQuant® Flow Cytometers (Miltenyi Biotec) and analyzed with FlowJo software.
# Over 1,000 hits were identified that bind strongly to CHO-human IL1RAP, but not parental CHO cells. 68 clones were selected for molecular cloning. Based on unique CDR3 sequences from the heavy chain variable domain, 35 antibodies from 13 families were confirmed by binding in IL1RAP positive cell lines EOL1 and Karpas 299 (see Table 8) by flow cytometry (MACSQuant® www.miltenybiotec.com).
# DMS79 = assay: Flow cytometry binding to endogenous cell line DMS79; type: cell-based; parameters: key: (−): No binding; (+): Weak binding; (++): Moderate binding; (+++): Strong binding; details: primary antibody 1 ug/ml
# Experimental: as §1
molecule,measurement,setting,value
"39A9_28A4: human anti-IL1RAP antibody, VH SEQ ID NO: 130, VL SEQ ID NO: 134 (antibody, V domains shown) VH: QVQLVESGGGVVQPGRSLRLSCAASGFTLSGYGMHWVRQAPGKGLEWVAVIWYDGSNKYYADSVKGRFTISRDNSKNMLFLQMNSLRAEDTAVYYCVRENGFGSGWFFDYWGQGNLVTVSS VL: EIVMTQSPATLSVSPGERATLSCRTSQSVSRDLAWYQQKPGQAPRLLIYGASTRATGIPVRFSGSGSGTEFTLTISSLQSEDFAVYYCQQYNNWPPWTFGQGTKLEIK",binding to EOL-1 by flow cytometry,EOL-1,(+++)
same,binding to DMS79 by flow cytometry,DMS79,(−)

# Source: patent US20260008856A1, “METHODS OF TREATING DISEASE USING ANTI-IL1RAP ANTIBODIES AND ANTIBODY DRUG CONJUGATES” (Bluefin Biomedicine, Inc., priority 2022, published 2026)
